In the supplement of paper PMC8007513:
Counter-ions that a name gives are not always drawn. ± gives the standard error. Out of some 1,300 compounds screened, about 75 (6%) showed an effect of 50% or more. The list shows a part of the results.

Test system: Trichoderma virens ATCC 9645
Assay: growth yield (OD600) relative to untreated control; higher = less growth inhibition
Settings: compound concentration: 100 uM
In short: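 Spores of Trichoderma virens ATCC 9645, taken from potato dextrose agar plates grown for 7 days, were suspended at 15,000 spores ml^−1 in potato dextrose broth. In 96-well plates, 100 μl aliquots held library compounds at 100 μM final, either alone or together with a biocide at 200 ng ml^−1, and were grown at 30 °C. A BioTek EL800 read OD600 at 40 h and 72 h. Growth values are given relative to the control lacking both agents and are means of duplicate screens.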

SMILES	growth yield (40 h)	growth yield (72 h)
C[C@@H](O[C@H]1OCCN(Cc2n[nH]c(=O)[nH]2)[C@H]1c1ccc(F)cc1)c1cc(C(F)(F)F)cc(C(F)(F)F)c1 [Aprepitant]	106%	98.06 ± 0.32%
CC=CC1=C(C(=O)O)N2C(=O)[C@@H](NC(=O)[C@H](N)c3ccc(O)cc3)[C@H]2SC1 [Cefprozil]	100 ± 1.4%	92.7 ± 3.1%
Cc1cc2c(s1)Nc1ccccc1N=C2N1CCN(C)CC1 [Olanzapine]	99.1 ± 1.6%	99.9 ± 2%
Cc1c(O)c(=O)n(-c2ccccc2)n1C [Antipyrine, 4-hydroxy]	94 ± 3.2%	89.04 ± 0.52%
CC(C)OC(=O)C(C)(C)Oc1ccc(C(=O)c2ccc(Cl)cc2)cc1 [Fenofibrate]	86.6 ± 2.1%	91.9 ± 4.8%
NC(=O)c1cnccn1 [Pyrazinamide]	102 ± 1.3%	103.5 ± 0.32%
O=C(CCNNC(=O)c1ccncc1)NCc1ccccc1 [Nialamide]	111.7 ± 0.48%	105.8 ± 0.94%
N/C(=N\C(=O)c1nc(Cl)c(N)nc1N)NCc1ccccc1 [Benzamil hydrochloride]	94.2 ± 3%	96.3 ± 4%
CSc1nc2cc(Cl)c(Oc3cccc(Cl)c3Cl)cc2[nH]1 [Triclabendazole]	78.2 ± 6%	104 ± 5.3%
Cc1nc2ccccn2c(=O)c1CCN1CCC(C(=O)c2ccc(F)cc2)CC1 [Pirenperone]	106 ± 1.6%	104 ± 2.2%
COc1cccc2c1C(=O)c1c(O)c3c(c(O)c1C2=O)C[C@@](O)(C(=O)CO)C[C@@H]3O[C@H]1C[C@H](N)[C@@H](O)[C@H](C)O1 [Epirubicin hydrochloride]	109 ± 14%	106 ± 13%
CCCN(CCC)CCc1cccc2c1CC(=O)N2 [Ropinirole hydrochloride]	99.43 ± 0.64%	103 ± 1.1%
CC(=O)O[C@H]1C(=O)[C@@]2(C)[C@H]([C@H](OC(=O)c3ccccc3)[C@]3(O)C[C@H](OC(=O)[C@H](O)[C@@H](NC(=O)c4ccccc4)c4ccccc4)C(C)=C1C3(C)C)[C@]1(OC(C)=O)CO[C@@H]1C[C@@H]2O [Paclitaxel]	104 ± 4.6%	103 ± 2.3%
O=C(O)c1ccccc1OP(=O)(O)O [Fosfosal]	89 ± 1.9%	91.6 ± 2.6%
C/C=C(/C(=C/C)c1ccc(O)cc1)c1ccc(O)cc1 [Dienestrol]	91.2 ± 7.9%	82.5 ± 6.6%
Cc1ncc([N+](=O)[O-])n1CC(C)O (stereo not given) [Secnidazole]	99.9 ± 3.3%	98.2 ± 2.5%
COc1ccc2cc([C@H](C)C(=O)O)ccc2c1 [(S)-Naproxen]	72.6 ± 0.79%	83.2 ± 2.8%
Nc1cc(N2CCCCC2)nc(N)[n+]1[O-] [Minoxidil]	104 ± 3.2%	102 ± 1.3%
CC1(C)S[C@@H]2[C@H](NC(=O)[C@H](N)c3ccccc3)C(=O)N2[C@H]1C(=O)O [Ampicillin trihydrate]	105 ± 3.5%	108 ± 2.6%
O=c1n(CCCN2CCN(c3cccc(Cl)c3)CC2)nc2ccccn12 [Trazodone hydrochloride]	97.85 ± 0.95%	98.48 ± 0.1%
CO[C@@H]1[C@@H](O[C@@H]2O[C@H](C)[C@@H](O[C@H]3C[C@@](C)(O)[C@@H](OC(=O)CC(C)C)[C@H](C)O3)[C@H](N(C)C)[C@H]2O)[C@@H](CC=O)C[C@@H](C)[C@@H](O)/C=C/C=C/C[C@@H](C)OC(=O)C[C@H]1OC(C)=O [Josamycin]	106.4 ± 0.64%	100.58 ± 0.1%
CC(=O)CC(c1ccccc1)c1c(O)c2ccccc2oc1=O (stereo not given) [Warfarin]	90.9 ± 3.5%	89.1 ± 4%

SMILES	growth yield (40 h)	growth yield (72 h)
CCN(CC)CC(=O)Nc1c(C)cccc1C [Lidocaine hydrochloride]	104 ± 2.7%	103 ± 3.2%
c1ccc2c(CC3=NCCN3)cccc2c1 [Naphazoline hydrochloride]	101 ± 2.4%	100%
CC(=O)OCC(=O)[C@@]12OC(C)(C)O[C@@H]1C[C@H]1[C@@H]3C[C@H](F)C4=CC(=O)C=C[C@]4(C)[C@@]3(F)[C@@H](O)C[C@@]12C [Fluocinonide]	90.1 ± 2.1%	89.6 ± 1.1%
C=CC1=C(C(=O)O)N2C(=O)[C@@H](NC(=O)/C(=N\O)c3csc(N)n3)[C@H]2SC1 [Cefdinir]	97.5 ± 3.5%	95.2 ± 3.1%
Cc1cn([C@H]2C=C[C@@H](CO)O2)c(=O)[nH]c1=O [Stavudine]	103 ± 2.4%	98.8 ± 3.1%
CC(=O)NS(=O)(=O)c1ccc(N)cc1 [Sulfacetamide sodic hydrate]	102 ± 1.1%	100.6 ± 0.32%
COc1cccc2c1C(=O)c1c(O)c3c(c(O)c1C2=O)C[C@@](O)(C(C)=O)C[C@@H]3O[C@H]1C[C@H](N)[C@H](O)[C@H](C)O1 [Daunorubicin hydrochloride]	118.8 ± 0.32%	116 ± 1.5%
Cc1c(NC(=O)c2cccnc2)c(=O)n(-c2ccccc2)n1C [Nifenazone]	101 ± 1.6%	102 ± 1.4%
CS(=O)(=O)OCCCCOS(C)(=O)=O [Busulfan]	103.2 ± 0.64%	105 ± 2%
CC(C)NC[C@@H](O)COc1ccc(CC(N)=O)cc1 [(R)-(+)-Atenolol]	102 ± 4%	97.8 ± 1.8%
NS(=O)(=O)c1cc2c(cc1C(F)(F)F)NCNS2(=O)=O [Hydroflumethiazide]	102 ± 2.4%	100 ± 3.1%
CC[C@@H]1C(=O)OC[C@@H]1Cc1cncn1C [Pilocarpine nitrate]	98.2%	98.6%
NC[C@@H]1O[C@@H](O[C@H]2[C@H](O)[C@@H](O[C@H]3O[C@H](CO)[C@@H](O)[C@H](N)[C@H]3O)[C@H](N)C[C@@H]2N)[C@@H](O)[C@H](O)[C@H]1O [Kanamycin A sulfate]	100 ± 1.1%	102 ± 2.1%
COC(=O)C1=C(C#N)NC(C)=C(C(=O)OC(C)C)C1c1cccc([N+](=O)[O-])c1 (stereo not given) [Nilvadipine]	109 ± 6.8%	103 ± 5.6%
CC1CC(OC(=O)c2ccccc2O)CC(C)(C)C1 (stereo not given) [Homosalate]	109 ± 3.2%	105.8 ± 0.32%
C[C@H](CCC(=O)O)[C@H]1CC[C@H]2[C@@H]3[C@@H](O)C[C@@H]4C[C@H](O)CC[C@]4(C)[C@H]3CC[C@]12C [Urosiol]	102 ± 4.9%	94.4 ± 2.3%
C#C[C@]1(O)CC[C@H]2[C@@H]3CCC4=CCCC[C@@H]4[C@H]3CC[C@@]21C [Lynestrenol]	84.7 ± 6.2%	87 ± 4.2%
O=C(CCCN1CCN(c2ccccn2)CC1)c1ccc(F)cc1 [Azaperone]	105 ± 7%	99.2 ± 4.6%
CN1CCC(=C2c3ccccc3Sc3ccccc32)CC1 [Pimethixene maleate]	85.77 ± 0.64%	95.2 ± 1.9%
Nc1c2ccccc2nc2ccccc12 [Aminacrine]	98.64 ± 0.48%	96.9 ± 2.9%
N[C@@H](Cc1cc(I)c(Oc2ccc(O)c(I)c2)c(I)c1)C(=O)O [Liothyronine]	91.3 ± 3.3%	97.3 ± 1.1%
CN1CCN(C(c2ccccc2)c2ccccc2)CC1 [Cyclizine hydrochloride]	106.9 ± 0.48%	103.6 ± 0.63%

SMILES	growth yield (40 h)	growth yield (72 h)
OCCN(CCO)c1nc(N2CCCCC2)c2nc(N(CCO)CCO)nc(N3CCCCC3)c2n1 [Dipyridamole]	65 ± 1.1%	63.87 ± 0.32%
O=C(O)c1ccccc1C(=O)Nc1ccc(S(=O)(=O)Nc2nccs2)cc1 [Phthalylsulfathiazole]	102 ± 3.8%	99.6 ± 2.3%
CN(c1nccc(=O)[nH]1)C1CCN(c2nc3ccccc3n2Cc2ccc(F)cc2)CC1 [Mizolastine]	94.5 ± 2.4%	96 ± 2.6%
OC(CNCC(O)C1CCc2cc(F)ccc2O1)C1CCc2cc(F)ccc2O1 (stereo not given) [Nebivolol hydrochloride]	95 ± 16%	114 ± 14%
CC[C@H](C)[C@H](N)C1=N[C@H](C(=O)N[C@@H](CC(C)C)C(=O)N[C@H](CCC(=O)O)C(=O)N[C@H](C(=O)N[C@H]2CCCCNC(=O)[C@H](CC(N)=O)NC(=O)[C@@H](CC(=O)O)NC(=O)[C@H](Cc3cnc[nH]3)NC(=O)[C@@H](Cc3ccccc3)NC(=O)[C@H]([C@@H](C)CC)NC(=O)[C@@H](CCCN)NC2=O)[C@@H](C)CC)CS1 [Bacitracin]	114 ± 2.2%	110 ± 1.3%
CN1CCN(CCCN2c3ccccc3Sc3ccc(C(F)(F)F)cc32)CC1 [Trifluoperazine dihydrochloride]	20 ± 0.95%	63.35 ± 0.42%
COc1ccc(OC)c(C(O)CNC(=O)CN)c1 (stereo not given) [Midodrine hydrochloride]	101.8 ± 0.16%	105 ± 0.73%
CN(C)CCN1C(=O)c2ccccc2N(C)c2ccccc21 [Dibenzepine hydrochloride]	101 ± 1.8%	105 ± 3%
CN(C(=O)C(Cl)Cl)c1ccc(OC(=O)c2ccco2)cc1 [Diloxanide furoate]	91.3 ± 4%	91.1 ± 2.4%
Nc1ccn([C@H]2CC[C@@H](CO)O2)c(=O)n1 [Zalcitabine]	102 ± 1.4%	95.3 ± 1.4%
CC(=O)c1ccc2c(c1)N(CCCN(C)C)c1ccccc1S2 [Acetopromazine maleate salt]	109 ± 5.9%	111 ± 4.1%
CN(C)CCOC(C)(c1ccccc1)c1ccccn1 (stereo not given) [Doxylamine succinate]	98.2 ± 1.6%	96.5 ± 1.1%
Oc1c(I)cc(Cl)c2cccnc12 [Clioquinol]	18.3 ± 7.8%	12.9 ± 5.3%
CC(C)(C#N)c1cc(Cn2cncn2)cc(C(C)(C)C#N)c1 [Anastrozole]	96.3 ± 1.3%	91 ± 1.7%
C(=C\c1ccccc1)/CN1CCN(C(c2ccccc2)c2ccccc2)CC1 [Cinnarizine]	86.1 ± 4.1%	104 ± 1.6%
O=C(C1CCCCC1)N1CC(=O)N2CCc3ccccc3C2C1 (stereo not given) [Praziquantel]	85.5 ± 2.9%	86.1 ± 3.9%
CN1CCC(=C2c3ccccc3CCc3cccnc32)CC1 [Azatadine maleate]	107 ± 7.9%	104 ± 4.2%
Nc1nc2ccc(OC(F)(F)F)cc2s1 [Riluzole hydrochloride]	52.3 ± 1.1%	54.2 ± 1.1%
COc1ccc2c(c1)c(CC(=O)O)c(C)n2C(=O)c1ccc(Cl)cc1 [Indomethacin]	86.6 ± 3.3%	92.7 ± 7.1%
CC(C)(C)NCC(O)COc1cccc2c1CCC(=O)N2 (stereo not given) [Carteolol hydrochloride]	106 ± 3.3%	106 ± 1.3%
C=C1c2c(Cl)ccc(O)c2C(=O)C2=C(O)[C@]3(O)C(=O)C(C(N)=O)=C(O)[C@@H](N(C)C)[C@@H]3[C@@H](O)[C@H]12.O=C(O)c1cc(S(=O)(=O)O)ccc1O [Meclocycline sulfosalicylate]	96.1 ± 12%	91.5 ± 6.3%
